IC50 is the fitted dose that halves viability relative to control wells, and lower means more sensitive; where the fit passes the top or lowest dose, that dose stands as a limit. The AUC spans the tested range (256-fold, ending at the top dose) of the same fit; values near 1 show little effect. For some of these results: A top dose marked as inferred was derived from the fitted curves, not read from the paper. For some of these results: An entry number marks a drug with two screens in the source, which often give different values.
Experiments:
Assay in all cases: Viability of human cancer cell lines after 72 h of drug (GDSC screen)
Thapsigargin = compound: C/C=C(/C)C(=O)O[C@H]1C(C)=C2[C@H]([C@@H]1OC(=O)CCCCCCC)[C@@](C)(OC(C)=O)C[C@H](OC(=O)CCC)[C@@]1(O)[C@H]2OC(=O)[C@@]1(C)O [Thapsigargin]; settings: top dose 0.512 µM; top dose inferred
Method: (§1)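 Human cancer cell lines in 384-well plates, medium with 10% serum, drug for 72 h over a 256-fold dose range (nine 2-fold or five 4-fold steps up to the top dose). Adherent lines were fixed and stained with the nucleic acid dye Syto60, suspension lines read with resazurin; signal relative to control wells, capped at 0 and 100%. One two-parameter sigmoid per drug and line, fitted in a mixed model over all curves with the slope shared within a line.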

QL-X-138 = compound: C=CC(=O)Nc1cc(-n2c(=O)ccc3cnc4ccc(-c5cn[nH]c5)cc4c32)ccc1C [QL-X-138]; settings: top dose 10.24 µM; top dose inferred
Method: as §1

GSK269962A = compound: CCn1c(-c2nonc2N)nc2cnc(Oc3cccc(NC(=O)c4ccc(OCCN5CCOCC5)cc4)c3)cc21 [GSK269962A]; settings: top dose inferred
Method: as §1

MPS-1-IN-1 = compound: COc1cc(N2CCC(O)CC2)ccc1Nc1cc(Nc2ccccc2S(=O)(=O)C(C)C)c2cc[nH]c2n1 [MPS-1-IN-1]; settings: top dose 20 µM; top dose inferred
Method: as §1

(5Z)-7-Oxozeaenol = compound: COc1cc(O)c2c(c1)/C=C/C[C@H](O)[C@H](O)C(=O)/C=C\C[C@H](C)OC2=O [(5Z)-7-Oxozeaenol]; settings: top dose 10 µM; top dose inferred
Method: as §1

CP466722 = compound: COc1cc2ncnc(-n3nc(-c4ccccn4)nc3N)c2cc1OC [CP466722]; settings: top dose 16 µM; top dose inferred
Method: as §1

Zibotentan = compound: COc1nc(C)cnc1NS(=O)(=O)c1cccnc1-c1ccc(-c2nnco2)cc1 [Zibotentan]; settings: top dose 20 µM; top dose inferred
Method: as §1

ABT-888 = compound: C[C@]1(c2nc3c(C(N)=O)cccc3[nH]2)CCCN1 [ABT-888]; settings: top dose 5 µM; top dose inferred
Method: as §1

CMK = compound: Cc1ccc(-c2c(C(=O)CCl)n(CCCO)c3ncnc(N)c23)cc1 [CMK]; settings: top dose 4 µM; top dose inferred
Method: as §1

ABT-869 = compound: Cc1ccc(F)c(NC(=O)Nc2ccc(-c3cccc4[nH]nc(N)c34)cc2)c1 [ABT-869]; settings: top dose 1.024 µM; top dose inferred
Method: as §1

CHIR-99021 = compound: Cc1cnc(-c2cnc(NCCNc3ccc(C#N)cn3)nc2-c2ccc(Cl)cc2Cl)[nH]1 [CHIR-99021]
Method: as §1

Cytarabine = compound: Nc1ccn([C@@H]2O[C@H](CO)[C@@H](O)[C@@H]2O)c(=O)n1 [Cytarabine]; settings: top dose 2 µM
Method: as §1

KU-55933 = compound: O=c1cc(-c2cccc3c2Sc2ccccc2S3)oc(N2CCOCC2)c1 [KU-55933]; settings: top dose 10 µM
Method: as §1

[1] = top dose 2.5 µM, screen: GDSC drug entry 127
[2] = top dose 5 µM, screen: GDSC drug entry 1192
[3] = top dose 2.56 µM, screen: GDSC drug entry 154
[4] = top dose 10 µM, screen: GDSC drug entry 1241, top dose inferred

Cell Line | AUC (Thapsigargin) | AUC (QL-X-138) | IC50 (QL-X-138) | AUC (GSK269962A; [1]) | IC50 (GSK269962A; [1]) | AUC (GSK269962A; [2]) | IC50 (GSK269962A; [2]) | AUC (MPS-1-IN-1) | IC50 (MPS-1-IN-1) | AUC ((5Z)-7-Oxozeaenol) | IC50 ((5Z)-7-Oxozeaenol) | AUC (CP466722) | IC50 (CP466722) | AUC (Zibotentan) | IC50 (Zibotentan) | AUC (ABT-888) | IC50 (ABT-888) | AUC (CMK) | IC50 (CMK) | AUC (ABT-869) | IC50 (ABT-869) | AUC (CHIR-99021; [3]) | IC50 (CHIR-99021; [3]) | AUC (CHIR-99021; [4]) | IC50 (CHIR-99021; [4]) | AUC (Cytarabine) | IC50 (Cytarabine) | AUC (KU-55933) | IC50 (KU-55933) | IC50 (Thapsigargin)
HCC2218 (breast, suspension) | 0.588 | 0.567 | 1020 nM | 0.956 | > 2500 nM | 0.82 | 3860 nM | 0.917 | > 20 µM | 0.868 | > 10000 nM | 0.837 | 14.8 µM | 0.959 | > 20 µM | 0.982 | > 5 µM | 0.906 | > 4 µM | 0.978 | > 1020 nM | 0.969 | > 2.56 µM | 0.968 | > 10 µM | 0.984 | > 2000 nM | 0.974 | > 10 µM | –
HD-MY-Z (Hodgkin lymphoma, adherent) | 0.404 | 0.586 | 1100 nM | 0.973 | > 2500 nM | 0.82 | 2890 nM | 0.926 | > 20 µM | 0.58 | 1030 nM | 0.718 | 4.17 µM | 0.98 | > 20 µM | 0.967 | > 5 µM | 0.805 | 2.04 µM | 0.977 | > 1020 nM | 0.984 | > 2.56 µM | 0.872 | 9.64 µM | 0.729 | 562 nM | 0.982 | > 10 µM | –
HDLM-2 (Hodgkin lymphoma, suspension) | 0.719 | 0.902 | > 10200 nM | 0.977 | > 2500 nM | 0.876 | 4820 nM | 0.989 | > 20 µM | 0.773 | 3820 nM | 0.618 | 2.1 µM | 0.989 | > 20 µM | 0.982 | > 5 µM | 0.939 | > 4 µM | 0.987 | > 1020 nM | 0.987 | > 2.56 µM | 0.987 | > 10 µM | 0.948 | > 2000 nM | 0.967 | > 10 µM | 132 nM
HH (T-cell leukaemia, suspension) | 0.664 | 0.476 | 539 nM | 0.965 | > 2500 nM | 0.62 | 747 nM | 0.914 | > 20 µM | 0.638 | 1710 nM | 0.68 | 3.78 µM | 0.963 | > 20 µM | 0.958 | > 5 µM | 0.948 | > 4 µM | 0.978 | > 1020 nM | 0.959 | > 2.56 µM | 0.975 | > 10 µM | 0.836 | > 2000 nM | 0.838 | > 10 µM | 107 nM
HSC-39 (stomach, suspension) | 0.663 | 0.818 | 4770 nM | 0.98 | > 2500 nM | 0.848 | 2960 nM | 0.989 | > 20 µM | 0.821 | 4790 nM | 0.845 | 9.28 µM | 0.991 | > 20 µM | 0.988 | > 5 µM | 0.983 | > 4 µM | 0.984 | > 1020 nM | 0.991 | > 2.56 µM | 0.971 | > 10 µM | 0.921 | > 2000 nM | 0.899 | 9.6 µM | 84.3 nM
HT (B-cell lymphoma, suspension) | 0.261 | 0.769 | 3550 nM | 0.915 | > 2500 nM | 0.942 | > 5000 nM | 0.948 | > 20 µM | 0.866 | 7730 nM | 0.892 | > 16 µM | 0.982 | > 20 µM | 0.99 | > 5 µM | 0.93 | > 4 µM | 0.983 | > 1020 nM | 0.99 | > 2.56 µM | 0.989 | > 10 µM | 0.953 | > 2000 nM | 0.912 | > 10 µM | 7.12 nM
HUTU-80 (digestive system, adherent) | 0.165 | 0.333 | 241 nM | 0.904 | 2330 nM | 0.92 | > 5000 nM | 0.708 | 4.28 µM | 0.682 | 1820 nM | 0.677 | 2.83 µM | 0.988 | > 20 µM | 0.991 | > 5 µM | 0.817 | 1.77 µM | 0.987 | > 1020 nM | 0.987 | > 2.56 µM | 0.991 | > 10 µM | 0.772 | 645 nM | 0.978 | > 10 µM | 3.96 nM
IMR-5 (neuroblastoma, adherent) | 0.392 | 0.478 | 563 nM | 0.99 | > 2500 nM | 0.46 | 248 nM | 0.846 | 11.3 µM | 0.655 | 1560 nM | 0.719 | 3.69 µM | 0.992 | > 20 µM | 0.969 | > 5 µM | 0.931 | > 4 µM | 0.974 | > 1020 nM | 0.989 | > 2.56 µM | 0.976 | > 10 µM | 0.992 | > 2000 nM | 0.992 | > 10 µM | 17 nM
IST-SL1 (small cell lung carcinoma, semi-adherent) | 0.484 | 0.557 | 923 nM | 0.877 | > 2500 nM | 0.707 | 1230 nM | 0.902 | > 20 µM | 0.712 | 2530 nM | 0.745 | 5.16 µM | 0.98 | > 20 µM | 0.987 | > 5 µM | 0.969 | > 4 µM | 0.967 | > 1020 nM | 0.987 | > 2.56 µM | 0.985 | > 10 µM | 0.776 | 818 nM | 0.98 | > 10 µM | 28.9 nM

Reference: the supplement of paper PMC4967469
